Measured values reported in the supplement of paper PMC3334620.
The full ranking holds about 33,000 sequences; the median of “E-score (-0.5 to 0.5)” is about -0.013, and the highest 2% start at about 0.3. This is one part of the list.

target: T1, Msn1 (UniProt P22148); experiment: PBM E-score (8-mer binding enrichment) (E-score (-0.5 to 0.5)); higher = stronger / more preferred TF binding; most listed sequences are background and not binding sites; conditions: protein concentration: 200 nM; construct: GST-full length
T1 sequence: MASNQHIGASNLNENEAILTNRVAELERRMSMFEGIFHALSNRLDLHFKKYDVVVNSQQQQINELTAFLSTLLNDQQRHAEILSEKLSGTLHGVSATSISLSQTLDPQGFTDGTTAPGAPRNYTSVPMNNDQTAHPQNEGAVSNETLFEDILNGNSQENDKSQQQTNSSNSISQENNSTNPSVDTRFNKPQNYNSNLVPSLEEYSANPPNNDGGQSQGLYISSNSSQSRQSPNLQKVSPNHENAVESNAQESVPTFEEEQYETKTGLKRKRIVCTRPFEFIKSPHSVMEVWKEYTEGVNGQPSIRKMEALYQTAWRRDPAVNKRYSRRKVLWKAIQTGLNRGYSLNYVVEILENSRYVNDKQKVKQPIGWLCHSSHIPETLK
Procedure, shortened: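 GST-tagged yeast TFs (full-length or DNA-binding domain) were made by PURExpress in vitro transcription/translation and applied at about 100-200 nM to universal all-10-mer Agilent arrays. The arrays were made double-stranded by primer extension, on fresh or once-stripped slides. Bound protein was detected with fluorescent anti-GST, and scans were normalised with masliner. Each ungapped eight-base word, pooled with its reverse complement, received an E-score (modified Wilcoxon-Mann-Whitney statistic) from the Universal PBM Analysis Suite.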

| Sequence | PBM E-score |
| --- | --- |
| CTTGTGTA | 0.114 |
| CCGAAAGA | 0.094 |
| CGCATCGC | -0.189 |
| CCCTTCTC | -0.359 |
| GAATCTCC | -0.102 |
| CACCGGTG | 0.064 |
| CGACGGAG | 0.0293 |
| ATTGATGG | 0.177 |
| CCGTTCAC | -0.0653 |
| GAAGGTCA | -0.119 |
| CCTACGAA | -0.0639 |
| ATCGTCGC | 0.0649 |
| CAGCGCGG | -0.135 |
| ATCCTCCG | -0.00807 |
| GACAATAA | 0.294 |
| CTAGTAAC | -0.145 |
| CGACACTC | 0.136 |
| CCTACTCC | -0.174 |
| GACCCGCA | -0.114 |
| GCGCTCCA | -0.199 |
| ACGTACTA | 0.0226 |
| CGATTCTC | 0.103 |
| GAGGGGAA | -0.167 |
| AGACCCCT | -0.238 |
| ATCAATGA | 0.118 |

| Sequence | PBM E-score |
| --- | --- |
| GGCCCACC | -0.347 |
| GGACTTGA | -0.00222 |
| CGGACGAA | 0.337 |
| ACGGGCCC | -0.132 |
| ATTAAACC | 0.0943 |
| ATTCTTGG | 0.135 |
| GCGTATAA | -0.029 |
| GTAGACAA | 0.309 |
| CATATTCG | 0.116 |
| AGTTTGTC | 0.446 |
| TGAACCAA | 0.0807 |
| AAATCAAA | 0.171 |
| ATCGCTAC | -0.0607 |
| ACGGTATG | -0.0824 |
| AGTTACCG | -0.00336 |
| ATCTATAG | 0.0639 |
| ACATCAAG | 0.051 |
| CTGATCCA | 0.015 |
| CGCGCTCC | -0.0391 |
| GAGTGCTA | -0.139 |
| AACTCCGG | 0.23 |
| GCGGGTCC | -0.19 |
| GCTATTCC | -0.183 |
| CGTCCTTA | 0.279 |
| AAAGAGCG | 0.0369 |

| Sequence | PBM E-score |
| --- | --- |
| AACAAGCC | 0.0265 |
| GCCCCACA | -0.0903 |
| ACATCTGG | 0.136 |
| GAAGGAGC | -0.417 |
| GAATTGAC | -0.0196 |
| CCAGGGCG | -0.139 |
| ATGCCTTG | -0.0693 |
| CTCCACGA | -0.0161 |
| AATATAGG | 0.167 |
| CGTGGGAC | 0.186 |
| CTGGCTCA | 0.0792 |
| TCGAACAA | 0.111 |
| AAGTCCCA | 0.303 |
| AATATTCA | 0.107 |
| CAACAGTA | -0.0242 |
| CTGAGTGA | 0.103 |
| AGTAGATC | -0.0769 |
| CACTGCTG | -0.229 |
| CATTTGAG | 0.214 |
| ATTCCCCG | -0.012 |
| AATTTCAT | 0.186 |
| CGGGACCA | -0.152 |
| GGGGCTCA | -0.343 |
| AAAAAGCG | 0.0919 |
| ACCGACAA | 0.268 |

| Sequence | PBM E-score |
| --- | --- |
| GCTGTCGA | -0.143 |
| CCCTATCC | -0.354 |
| CACTTACA | 0.156 |
| AAAGAAAT | 0.0721 |
| GTGTACTA | 0.289 |
| GTCGGAAA | 0.213 |
| GTAAGGTA | 0.107 |
| ATTCTACG | -0.0164 |
| GCGCCGCC | 0.0408 |
| AAGACCTA | 0.018 |
| ACAGCGCC | -0.0779 |
| CTCGGGTA | 0.00177 |
| ACAGGTCA | -0.0415 |
| AATACGGG | -0.0838 |
| CGCCCGTC | -0.0404 |
| ATGAGCCG | -0.156 |
| GAGTTCCC | 0.0462 |
| AGAGTATA | -0.24 |
| ACCTTCTG | -0.0438 |
| CAAGCTTG | -0.169 |
| ATGCCCTG | -0.0109 |
| CAGTTCTC | -0.083 |
| GATGCGTA | 0.00061 |
| AGAGGAAT | -0.14 |
| CTATCTCA | -0.0312 |

| Sequence | PBM E-score |
| --- | --- |
| AGACTTTC | 0.224 |
| AAACCCCC | -0.295 |
| ACATAATC | 0.142 |
| AATCTTAT | 0.11 |
| AACATGTA | 0.186 |
| TCTACAAA | 0.0205 |
| ACTTGAGA | -0.0406 |
| AATGTAGT | -0.0349 |
| AGGTGGCG | -0.256 |
| ACCTTGGG | 0.0466 |
| TGTGTGAA | 0.00834 |
| ATCAATTA | 0.127 |
| AGCAATAC | 0.0841 |
| ACTTTCCG | 0.0989 |
| CAGTTCGG | 0.115 |
| ATGTGTCG | 0.194 |
| CACCTCTC | -0.244 |
| CTAAGATA | 0.0435 |
| CGTGAGCC | -0.189 |
| GAGCCGGC | -0.123 |
| TCATGAAA | -0.0518 |
| AGTTTATG | 0.0578 |
| CATTGGTC | -0.0452 |
| CACAAATC | 0.0687 |
| GGGGTGGA | -0.263 |

| Sequence | PBM E-score |
| --- | --- |
| AACGAAAG | 0.0418 |
| AAAGTTCC | -0.0603 |
| GTTTTCGA | -0.179 |
| ATTAAGAA | 0.106 |
| GGGTACCA | -0.0811 |
| ATCGCCTA | -0.022 |
| ACAGAGTA | 0.0217 |
| ATCCAGAA | 0.0976 |
| GAGAAATA | 0.161 |
| AATAAGGC | -0.0798 |
| ATTCTCCC | -0.0691 |
| GGACCTCC | -0.186 |
| CAGTCTGA | -0.13 |
| GCATTAGC | -0.0978 |
| CGGTCGAA | 0.0627 |
| CTTTGAAC | -0.0499 |
| AAGTCAAG | -0.118 |
| ATGTTCTG | 0.018 |
| CCATTCCG | 0.0235 |
| TCAAACAA | 0.0792 |
| AGCGCAAC | 0.00252 |
| CACTTCAC | 0.00039 |
| CGGATTGC | 0.0283 |
| AAGTAGGT | -0.0559 |
| GTGTAAAA | 0.0823 |

| Sequence | PBM E-score |
| --- | --- |
| ATGCGGGA | 0.0935 |
| CTCCTATC | -0.229 |
| ATTTTAAA | 0.156 |
| GGTCTATA | -0.138 |
| GTTGGGCA | -0.0271 |
| CTTGCCAC | -0.171 |
| AGTGCTTA | -0.0914 |
| AGTGGGCC | -0.258 |
| GGTATTGA | 0.154 |
| AATACACT | 0.225 |
| GCCTTTAC | -0.0137 |
| AAATCGTT | 0.167 |
| CCAGGCAG | -0.0643 |
| CCCTGCCA | -0.173 |
| ACAAATAG | 0.322 |
| CCCGTTTA | 0.193 |
| CACCCCAA | -0.0518 |
| GACTATAC | 0.0248 |
| ACGTTTTA | 0.177 |
| TACCTTAA | -0.0222 |
| CAGTCAGA | -0.00092 |
| CCGTATAA | 0.144 |
